Reference: paper PMC4336329 (PLoS ONE, 2015)
The whole screen tested about 310,000 compounds, of which about 2,200 (0.71%) showed an effect of 50% or more. The effect is printed as a negative number. The list shows a part of the results.

These compounds were tested against human ether-à-go-go-related gene (hERG) potassium channel (human, UniProt Q12809) (assay: primary screen, population patch clamp on CHO cells stably expressing hERG).
Chain of human ether-à-go-go-related gene (hERG) potassium channel (Q12809 whole entry, looked up): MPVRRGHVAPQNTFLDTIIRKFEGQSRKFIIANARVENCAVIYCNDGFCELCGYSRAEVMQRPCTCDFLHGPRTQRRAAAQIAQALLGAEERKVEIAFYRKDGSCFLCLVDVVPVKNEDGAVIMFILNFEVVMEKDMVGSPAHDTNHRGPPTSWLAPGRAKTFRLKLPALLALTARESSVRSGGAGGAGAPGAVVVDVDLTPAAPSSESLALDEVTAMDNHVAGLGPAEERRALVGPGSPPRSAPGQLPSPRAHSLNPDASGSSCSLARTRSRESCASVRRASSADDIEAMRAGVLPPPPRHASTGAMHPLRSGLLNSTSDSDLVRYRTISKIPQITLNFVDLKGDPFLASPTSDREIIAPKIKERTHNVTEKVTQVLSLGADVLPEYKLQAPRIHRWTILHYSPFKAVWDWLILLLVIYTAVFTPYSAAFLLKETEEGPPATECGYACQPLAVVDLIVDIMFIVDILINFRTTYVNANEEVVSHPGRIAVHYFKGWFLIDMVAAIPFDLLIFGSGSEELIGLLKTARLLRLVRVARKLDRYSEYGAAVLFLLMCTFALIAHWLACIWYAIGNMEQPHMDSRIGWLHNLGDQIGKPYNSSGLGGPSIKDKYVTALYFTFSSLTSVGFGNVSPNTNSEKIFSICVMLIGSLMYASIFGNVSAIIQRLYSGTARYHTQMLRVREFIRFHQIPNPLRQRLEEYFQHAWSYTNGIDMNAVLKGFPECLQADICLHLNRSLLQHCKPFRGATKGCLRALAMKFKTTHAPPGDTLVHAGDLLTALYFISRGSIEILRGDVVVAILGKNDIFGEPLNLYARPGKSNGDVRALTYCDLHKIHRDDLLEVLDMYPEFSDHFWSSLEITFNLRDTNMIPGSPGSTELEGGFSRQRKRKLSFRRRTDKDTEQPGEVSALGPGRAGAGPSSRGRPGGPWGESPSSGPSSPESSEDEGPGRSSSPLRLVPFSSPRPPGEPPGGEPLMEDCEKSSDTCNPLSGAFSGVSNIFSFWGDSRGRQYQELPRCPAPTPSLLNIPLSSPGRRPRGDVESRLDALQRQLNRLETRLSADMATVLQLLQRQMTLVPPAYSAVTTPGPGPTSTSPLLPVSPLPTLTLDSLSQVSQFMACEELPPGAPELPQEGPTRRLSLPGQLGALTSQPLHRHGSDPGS

SMILES	hERG current change (%, negative = inhibition) at 1uM
C/C(=N\NC(=O)Nc1ccccc1)c1ccccc1	7.76%
Cc1c([N+](=O)[O-])c([N+](=O)[O-])nn1CC(=O)N1CCOCC1	17.5%
CCC1CCC2(CC1)NC(=O)N(CC(=O)Nc1ccc(OC)c(Cl)c1)C2=O (centres unmarked)	9.92%
CSc1nsc(SCC(=O)Nc2ccc(OC(C)=O)cc2)n1	9.38%
c1ccc2c(CSc3nnc(-c4ccncc4)o3)cccc2c1	4.85%
CCc1ccc(/C=C(\C)C(=O)c2c(C)cc(C)[nH]c2=O)cc1	7.16%
N#C/C(=C\Nc1ccc2c(c1)OCCO2)c1nc(-c2ccccc2)cs1	15.3%
CCn1c(SCC(=O)Nc2nc(C)cs2)nnc1-c1cccnc1	5.88%
CCNC(=O)CN(c1ccccc1OC)S(=O)(=O)c1cccs1	4.09%
CCOc1ccccc1NC1c2ccccc2C(=O)N1Cc1ccco1 (centres unmarked)	7.42%
CN(C)S(=O)(=O)c1ccc(C(=O)OCC(=O)NCc2ccco2)cc1	13.1%
CC1CCN(S(=O)(=O)N2CCCC(C(=O)NCc3ccc(F)cc3)C2)CC1 (centres unmarked)	11.9%
CCc1cc2c(=O)n(-c3ccccc3)c(SCC(=O)O)nc2s1	17%
CC(=NCCN1CCN(C(C)=C2C(=O)c3ccccc3C2=O)CC1)C1=C(O)CC(C)(C)CC1=O	-18.1%
CC(=O)Nc1ccc(S(=O)(=O)Nc2nc3ccccc3nc2N2CCCCCC2)cc1	10.3%
Cc1ccc(S(=O)(=O)N(Cc2n[nH]c(=S)n2-c2ccccc2)c2cccc(Cl)c2)cc1	14%
CC(NCc1ccco1)C(=O)N1CCc2ccccc2C1.Cl (centres unmarked)	14.5%
C=CCOC(=O)C1=C(C)Nc2nc3ccccc3n2C1c1ccncc1 (centres unmarked)	9.94%
O=C(NCc1ccncc1)/C(=N/O)c1ccccc1	18.6%
COc1ccc(/C=N/NC(=O)c2cccc(OC(F)(F)C(F)F)c2)c(OC)c1OC	7.79%
Cc1ccc(OCCC(=O)OCC(=O)NCc2ccccc2)cc1	5.04%
Cc1ccc(C(=O)Cn2c(C(=O)O)cc3ccccc32)cc1	14.1%
O=[N+]([O-])c1cc(Cl)c(O)c(-[n+]2c(-c3ccccc3)cc(-c3ccccc3)cc2-c2ccccc2)c1.[O-][Cl+3]([O-])([O-])[O-]	10.6%

SMILES	hERG current change (%, negative = inhibition) at 1uM
CCOC(=O)n1c(=O)n(Cc2ccc(OC)cc2)c2ccccc21	11.7%
Cc1cc(OCC(O)CN2CCCC2)ccc1C(C)C.Cl (centres unmarked)	6.93%
Cc1cc(/C=C2/C(=O)NC(=O)N(Cc3ccco3)C2=O)c(C)n1-c1ccccc1	8.05%
CCOC(=O)/C(C#N)=C/c1ccc(OC)c(OC)c1	8.32%
C[C@H]1CN=C(Nc2ccccc2)N1CCC1CCCCC1	-11.8%
O=C(Nc1cc(Sc2ccccn2)cc([N+](=O)[O-])c1)c1cccc(F)c1	16.5%
O=c1cc(C(F)(F)F)c2sc(N3CCCCC3)nc2[nH]1	14.9%
CCCNC(=O)c1onc(CSc2ccncc2)c1C(=O)NCCC	7.34%
CCOC(=O)c1c(C)noc1-c1ccc(Br)o1	0.722%
CC(=O)c1ccc(NC(=O)CO/N=C(\C)c2cccs2)cc1	7.1%
CN(CC(=O)Nc1ccc(F)cc1)C(=O)COC(=O)c1ccccc1	-0.934%
CC(C)CN(C(=O)COC(=O)c1cccc2ccccc12)c1c(N)n(Cc2ccccc2)c(=O)[nH]c1=O	9.65%
CCCC(=O)OCC(=O)NCc1ccc(Cl)cc1	9.37%
Cc1ccc(C(=O)Nc2cccc(C(=O)N3CCOCC3)c2)cc1	3.75%
COc1cc(/C=N/O)ccc1OCc1ccc(Cl)cc1	11%
CCN(CC)S(=O)(=O)c1ccc(NC(=O)CSc2nnc(-c3cccc(OC)c3)n2C)cc1	-0.303%
CCCOP(=O)(OCCC)C(NC(=O)C(C)(C)C)c1ccccc1 (centres unmarked)	8.12%
O=c1[nH]c(SCc2ccc(F)cc2Cl)nc2ccccc12	15.1%
COc1ccc(/C=C2\N=C(c3c(-c4ccccc4)noc3C)OC2=O)cc1OC	5.96%
Cc1ccc(NC(=O)CSc2nnc(-c3cccnc3)n2CCN2CCCCC2)cc1	-53.7%
COc1cc(C(=O)Nc2ccc(O)cc2C(=O)O)ccc1OC(C)=O	-6.62%
CCOC(=O)CC(=O)CSc1ccc2nnc(-c3ccccc3)n2n1	-40.9%
Cc1cc(C)nc(CCNC(=O)c2cc(COc3ccccc3)on2)n1	11%

SMILES	hERG current change (%, negative = inhibition) at 1uM
Cc1ccc(C(=O)COC(=O)CNC(=O)c2cccs2)cc1	3.85%
COc1ccc(S(=O)(=O)Nc2cc(Cl)ccc2OC)cc1	1.63%
Cc1nc2ccc([N+](=O)[O-])cc2c(=O)n1Cc1cccc(F)c1	2.47%
Brc1ccc(C2NCCS2)cc1 (centres unmarked)	6.09%
CCCCNc1c(NC(C)=O)c(=O)oc2ccccc12	13%
CCOc1ccc(Br)cc1S(=O)(=O)Nc1ccccc1N1CCOCC1	-13.2%
CC1CCN(CCCNC(=O)c2ccc(Cn3c(=S)[nH]c4ccc(Br)cc4c3=O)cc2)CC1	10.9%
Cn1c(=O)n(C)c2cc(NC(=O)C(F)(F)F)ccc21	8.59%
O=C(CN1CCN(Cc2ccccc2)CC1)N=Nc1c(O)[nH]c2ccccc12	-37.6%
COc1ccc(NC(=O)CNC(=O)c2c(C)nn(C)c2Cl)cc1	15.1%
CCc1c(C(=O)N2CCN(c3ccccc3F)CC2)[nH]c(C)c1C(C)=O	6.3%
c1ccc(Nc2nc(N3CCCCC3)nc(N3CCNCC3)n2)cc1	1.69%
COc1ccc(OC)c(CNc2ccc3c(c2)CCC3)c1	14.9%
O=c1cc(-c2ccccc2)nc2nc(CCc3ccccc3)[nH]n12	16.9%
CN1C(=O)c2oc3ccccc3c(=O)c2C1c1cccnc1 (centres unmarked)	-2.06%
CCOC(=O)c1ncccc1NC(=O)CC(=O)Nc1cccnc1C(=O)OCC	12.1%
CCOC(=O)c1sc(NC(=O)c2ccc(S(=O)(=O)N(CC)CC)cc2)nc1C	3.55%
Cc1cccc(Cn2ccc(NC(=O)c3ccc4c(c3)OCO4)n2)c1	2.14%
CC(NC(=O)c1ccco1)c1ccc2c(c1)OCO2 (centres unmarked)	-4.89%
COCCn1c(SCC(=O)Nc2ccc(NC(=O)c3ccco3)c(OC)c2)nc2ccccc2c1=O	1.17%
COC(=O)[C@H]1C[C@@H]1[C@H](NP(=O)(c1ccccc1)c1ccccc1)c1ccccc1	9.06%
O=C1NC(=O)C2(Cc3ccccc3N3CCCC32)C(=O)N1 (centres unmarked)	3.76%
COc1ccc(CCNC(=O)CCC(=O)N2CC(C)Oc3ccc(Cl)cc32)cc1OC (centres unmarked)	10.2%

SMILES	hERG current change (%, negative = inhibition) at 1uM
CSCCC(NC(=O)c1cccc([N+](=O)[O-])c1)c1nc2ccccc2[nH]1 (centres unmarked)	-0.896%
CC(=O)c1ccc(N2C(=O)NC3(CCCCC3)C2=O)cc1	4.42%
CCc1noc(C)c1C(=O)Oc1ccc(N(C)S(=O)(=O)c2ccc(C)cc2)cc1	0.292%
COc1ccc(C2C(C(=O)Nc3cccc(C)n3)CCC(=O)N2c2ccc(OC)cc2)cc1 (centres unmarked)	-0.0137%
CN(C(=O)c1ccc(F)c(S(=O)(=O)N2CCOCC2)c1)C1CCCCC1	7.37%
CCCCOC(=O)CSc1nnc(-c2cc(OC)c(OC)c(OC)c2)o1	3.76%
CCCn1c(C)cc(/C=C(\C#N)C(=O)OCC(=O)Nc2cccc(OC)c2)c1C	16.5%
c1ccc2[nH]c(NCCN3CCOCC3)nc2c1	13.2%
CCCn1c2c(c(=N)c3c1CCC3)CCC2.I	8.15%
Nc1nc2c(s1)CCc1c-2cnn1-c1ccccc1	9.35%
CNc1nc(N)nc(OC(C(F)(F)F)C(F)(F)F)n1	15.6%
O=C(/C=C/c1ccc(Br)o1)Nc1nnc(C2CC2)s1	3.12%
CN(c1ccc(C(=O)N2CCN(Cc3ccc4c(c3)OCO4)CC2)cc1)S(C)(=O)=O	13.1%
COc1ccc(NC(=O)COC(=O)C23CC4CC(CC(Cl)(C4)C2)C3)c(OC)c1	11.7%
C/C(=N\NC(=O)c1ccc(O)cc1)c1ccc(N2CCOCC2)cc1	11%
O=C(N/N=C/c1ccc(OC(F)F)cc1)c1cc[n+]([O-])cc1	12.2%
CCOc1ccc(NC(=O)CCS(=O)(=O)c2cccc3nsnc23)cc1	5.74%
COc1ccc(C2C(=O)c3ccccc3C2=Nc2ccc(Br)cc2)cc1 (centres unmarked)	13.7%
CCOc1ccccc1NC(=O)Nc1c(C)n(-c2ccccc2)c(=O)n1C	2.46%
CN1C(=O)CSc2ccc(NC(=O)N3CCN(c4ccccc4)CC3)cc21	0.102%
